Measured values published in PubChem BioAssay AID894 (National Center for Advancing Translational Sciences (NCATS), 2007).
About 6,500 (4.3%) of roughly 150,000 compounds were called active. Inconclusive results, whose numbers are uncertain, are shown with a selection of clear calls. Calls come from the whole dose curve; as a rule, active = well fitted inhibition curve with a large enough effect (not every such curve was filed as active); inconclusive = small, poorly fitted or top-dose-only effect, or another doubt; inactive = no such curve, though single readings can be large or run the other way. Potencies of inconclusive entries are left out as doubtful fits.

molecular target: 15-hydroxyprostaglandin dehydrogenase [NAD(+)] (Homo sapiens) (UniProt P15428); assay: qHTS Assay for Inhibitors of HPGD (15-Hydroxyprostaglandin Dehydrogenase); details: purified HPGD, NADH fluorescence kinetic, PGE2 substrate; activity change, negative = inhibition: stronger effect = lower value
Chain of UniProt P15428 (P15428 whole entry, looked up): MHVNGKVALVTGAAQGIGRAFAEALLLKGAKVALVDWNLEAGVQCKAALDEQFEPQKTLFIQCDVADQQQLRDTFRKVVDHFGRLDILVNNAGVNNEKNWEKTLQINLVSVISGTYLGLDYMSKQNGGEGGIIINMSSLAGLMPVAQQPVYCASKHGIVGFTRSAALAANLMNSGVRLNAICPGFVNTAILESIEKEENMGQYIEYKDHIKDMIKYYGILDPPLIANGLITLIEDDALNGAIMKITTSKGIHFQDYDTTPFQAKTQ
Summary of the method: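 NADH formation kinetics: reaction with 30 uM PGE2 and 1 mM NAD+ (final), 20 nM enzyme, Tris-HCl pH 8 with Tween 20, after 15 min compound preincubation at room temperature. Fluorescence change, last versus first of five reads.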
% is set by controls: 0 for no effect and ±100 for the full control effect; potency is the fitted concentration of half-maximal effect; tags give direction and shape of the fitted curve.

| SMILES | activity change, negative = inhibition | Potency |
| --- | --- | --- |
| O=C(CSc1nnc2scc(-c3ccccc3)n12)NCC1CCCO1 (centres undefined) | inactive: -2.7% | – |
| CC#C[C@]1(O)CC[C@H]2C3CCC4=CC(=O)CCC4=C3[C@@H](c3ccc(N(C)C)cc3)C[C@@]21C (some centres undefined) | inactive: -8.15% | – |
| C=CCNc1nc(N)c(C(=C(C#N)C#N)c2ccc(Br)cc2)s1 | – | inconclusive [inhibitor, partial curve] |
| COCCCn1c(SCC(=O)Nc2ccc(NC(=O)c3ccco3)c(OC)c2)nc2ccccc2c1=O | – | inconclusive [inhibitor, single point] |
| COC(=O)C1(C(=O)OC)Sc2ccccc2C1=O | – | inconclusive [inhibitor, single point] |
| CCCCn1c(NC(=O)C2CCCCC2)nc2ccccc21 | – | inconclusive [inhibitor, partial curve, poor fit] |
| COc1ccc2c(c1OC)C(Cc1ccccc1)N1CCc3cc4c(cc3C1C2)OCO4 (centres undefined) | – | inconclusive [inhibitor, single point] |
| COc1cc2cc(Oc3ccc4ccc(=O)oc4c3)c(=O)oc2cc1O | – | inconclusive [inhibitor, partial curve, poor fit] |
| Oc1c(C(c2ccco2)N2CCOCC2)sc2ncnn12 (centres undefined) | inactive: -23.7% | – |
| COc1ccccc1CNC(=O)c1oc2ccc(S(=O)(=O)N3CCCC3)cc2c1C | – | inconclusive [inhibitor, partial curve] |
| Cc1ccc(CNC(=O)CN2CCCC(C)C2)cc1 (centres undefined) | – | active: 14.1 µM |
| COC(=O)Cn1c(=NC(=O)C2COc3ccccc3O2)sc2cc(S(N)(=O)=O)ccc21 (centres undefined) | inactive: -4.13% | – |
| CCOc1ccc(NC(=O)CN2CCN(CC(=O)Nc3cccc(F)c3)CC2)cc1 | inactive: 7.49% | – |
| CCCCCn1c(N)c(C#N)c2nc3ccccc3nc21 | – | inconclusive [inhibitor, partial curve] |
| CC1=CC(=O)C(C(C)C)=C/C1=N/OC(=O)c1cccc([N+](=O)[O-])c1 | – | inconclusive [inhibitor, single point] |
| CC(C)(C)OC(=O)N1CCC[C@H]1c1nnc(SCc2c(Cl)cccc2Cl)o1 | inactive: -10.5% | – |
| CCNc1ccc(Br)cc(C(=O)/C=C/c2c(Cl)cccc2Cl)c1=O | – | active: 8.91 µM |
| O=C(NC(=S)Nc1ccc(N2CCCCC2)c(Cl)c1)c1ccc2c(c1)OCCO2 | – | inconclusive [inhibitor, partial curve] |
| O=c1c2ccccc2cnn1Cc1n[nH]c(=S)n1-c1ccccc1Cl | – | inconclusive [inhibitor, single point] |
